Here are results for 66 compounds from paper PMC6919601, “Identification of Plasmodium dipeptidyl aminopeptidase allosteric inhibitors by high throughput screening” (PLoS ONE, 2019).

Screen size: about 110,000 compounds; about 230 (0.21%) showed an effect of 50% or more. Some of the results follow.
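Further: 30 min substrate incubation versus DMSO and 10 µM JCP410 controls.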

The target in this test is DPAP1 (Plasmodium falciparum, UniProt Q8IIJ9). The test is described as follows: primary screen, percent inhibition; read by cleavage of a fluorogenic dipeptide substrate; higher = more effect of the substance. Further details: species or system P. falciparum D10 trophozoite lysates; single well.
DPAP1, sequence (Q8IIJ9 whole entry, looked up): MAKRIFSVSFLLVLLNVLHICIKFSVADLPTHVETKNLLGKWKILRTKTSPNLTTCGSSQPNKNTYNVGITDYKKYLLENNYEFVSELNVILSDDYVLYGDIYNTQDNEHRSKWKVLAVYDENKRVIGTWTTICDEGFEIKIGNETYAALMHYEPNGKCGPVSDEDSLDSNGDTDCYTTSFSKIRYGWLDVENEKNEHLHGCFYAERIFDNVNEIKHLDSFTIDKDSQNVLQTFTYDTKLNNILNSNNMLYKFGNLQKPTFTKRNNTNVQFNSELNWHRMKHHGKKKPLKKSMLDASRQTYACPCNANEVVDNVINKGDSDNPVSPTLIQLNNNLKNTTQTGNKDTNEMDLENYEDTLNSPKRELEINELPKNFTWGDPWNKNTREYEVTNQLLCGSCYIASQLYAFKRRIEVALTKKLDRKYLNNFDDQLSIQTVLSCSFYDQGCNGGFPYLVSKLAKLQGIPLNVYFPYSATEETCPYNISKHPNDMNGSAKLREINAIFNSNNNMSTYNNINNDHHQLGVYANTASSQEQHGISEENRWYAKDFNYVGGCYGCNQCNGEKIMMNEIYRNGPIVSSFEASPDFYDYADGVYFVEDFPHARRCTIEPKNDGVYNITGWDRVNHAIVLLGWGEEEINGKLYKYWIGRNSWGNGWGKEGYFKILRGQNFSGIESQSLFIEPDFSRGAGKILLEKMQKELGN
As for `CSc1nc2c(c(=O)n1C1CCCC1)C1(CCCC1)Cc1ccccc1-2`, the “% Inhibition @ 10 uM” value is given as -0.436%.

On to `C=CCc1ccccc1OCC(=O)O`, for which the “% Inhibition @ 10 uM” value stood at 3.25%.

On to `CC(C)NC(=O)c1ccccc1Br`, for which the “% Inhibition @ 10 uM” value is recorded as -3.49%.

On to `CC1CN(c2nc3ccccc3nc2SCC(=O)NC2CCCCCCC2)CC(C)O1` (stereo not drawn), for which the “% Inhibition @ 10 uM” value was found to be 3.36%.

Regarding `N#CCNC(=O)[C@H](Cc1cc(Cl)c(O)c(Cl)c1)NC(=O)C(c1ccccc1)c1ccccc1`, the “% Inhibition @ 10 uM” value was found to be 20.1%.

Consider `Cc1ccc(SC(C)C(=O)NC(C)(C)C)cc1` (stereo not drawn), for which the “% Inhibition @ 10 uM” value amounted to 3.62%.

In the case of `COc1ccc(Br)cc1C=C1C(=O)NC(=S)NC1=O`, the “% Inhibition @ 10 uM” value was 2.13%.

As to `COc1ccc(C(CC(=O)Nc2nc(C)cs2)N2Cc3ccccc3C2=O)cc1` (stereo not drawn), the “% Inhibition @ 10 uM” value was -2.94%.

In the case of `O=C(c1cc(-c2ccccc2O)on1)N1CCOCC1`, the “% Inhibition @ 10 uM” value was -4.43%.

With `Cc1ccc2nc(Nc3nc(O)c4c(n3)CCC4)nc(C)c2c1`, the “% Inhibition @ 10 uM” value was -2.32%.

`O=C1c2ccccc2C(=O)N1CC1c2ccccc2CCN1C(=O)c1cccc(C(F)(F)F)c1` (stereo not drawn): the “% Inhibition @ 10 uM” value is -0.458%.

Take `Cn1c(=O)c2c(nc(NCC(=O)O)n2CCc2ccccc2)n(C)c1=O`: the “% Inhibition @ 10 uM” value was -4.65%.

`COCCCn1c(=O)c(C#N)cc2c(=O)n3cccc(C)c3nc21`: the “% Inhibition @ 10 uM” value amounted to 2.73%.

`CC(=O)c1cccc(NC(=O)CN(C)S(=O)(=O)c2c(C)cc(C)cc2C)c1`: the “% Inhibition @ 10 uM” value was -1.82%.

Turning to `CCC(CC)N1CCN(C(=O)c2cc(OC)c(OC)c(OC)c2)CC1`, the “% Inhibition @ 10 uM” value is recorded as 7.02%.

Turning to `CC1(C)CC(=O)c2cc(OCC(=O)N3CCN(Cc4ccccc4)CC3)ccc2O1`, the “% Inhibition @ 10 uM” value is on record as -4.97%.

Consider `Cc1ccc(N2C(=O)NC(=O)/C(=C/NCCCO)C2=O)cc1C`, for which the “% Inhibition @ 10 uM” value was determined as 2.69%.

`Cc1ccc(NC2=NC(=O)/C(=C\c3ccco3)S2)cc1`: the “% Inhibition @ 10 uM” value is -1.06%.

On to `CCCCNC(=O)CNC(=S)N(Cc1ccccc1)Cc1cccs1`, for which the “% Inhibition @ 10 uM” value is on record as 4.47%.

As for `O=C(CN(c1ccccc1Cl)S(=O)(=O)c1ccccc1)NCc1cccnc1`, the “% Inhibition @ 10 uM” value worked out at 1.02%.

Regarding `Cc1ccc(/C=C2\C(=O)NC(=S)N(c3ccc(Cl)cc3)C2=O)o1`, the “% Inhibition @ 10 uM” value is listed as 1.72%.

Turning to `O=C(COc1ccccc1)N1CCN(Cc2cccc(Cl)c2)CC1`, the “% Inhibition @ 10 uM” value is -1.1%.

In the case of `CC(C)c1ccc(O)c(C(=O)c2cnn(-c3ccccc3)c2)c1`, the “% Inhibition @ 10 uM” value is -8.86%.

Turning to `O=C(O)C(O)C12CC3CC(CC(Br)(C3)C1)C2` (stereo not drawn), the “% Inhibition @ 10 uM” value is reported as -0.712%.

As to `CCc1ccc(S(=O)(=O)c2nnn3c2nc(NCc2ccccc2)c2ccccc23)cc1`, the “% Inhibition @ 10 uM” value is listed as -4.85%.

On to `O=C(c1ccco1)N(Cc1ccccc1)c1ccccn1`, for which the “% Inhibition @ 10 uM” value is -3.12%.

With `COc1ccc2oc(=O)c(-c3nc(-c4ccc5c(c4)OCO5)no3)cc2c1`, the “% Inhibition @ 10 uM” value was -3.43%.

As for `COc1ccc(CCNC(=O)C2c3ccccc3Oc3ccccc32)cc1OC`, the “% Inhibition @ 10 uM” value is given as -6.7%.

Turning to `COc1ccc(NC(=O)CN(c2ccc(OC)c(OC)c2)S(C)(=O)=O)cc1Cl`, the “% Inhibition @ 10 uM” value was -2.74%.

With `Cc1cc(C(c2ccccc2)c2cc(C)c(N)c(C)c2)cc(C)c1N`, the “% Inhibition @ 10 uM” value is recorded as 1.35%.

With `COc1cccc(C2C(C#N)=C(N)Oc3c2c(C)nn3-c2ccc(C)cc2)c1` (stereo not drawn), the “% Inhibition @ 10 uM” value is recorded as -0.941%.

On to `CC(C)N(C(=O)c1ccc(C(=O)O)cc1)C(C)C`, for which the “% Inhibition @ 10 uM” value is given as -6.07%.

`CCOC(=O)c1sc(NC(=O)CSc2nc(SC)ns2)nc1C`: the “% Inhibition @ 10 uM” value turned out to be 1.91%.

For the compound `CCOC(=O)C1=C(C)NC(=O)NC1c1cccc(OCC)c1O` (stereo not drawn), the “% Inhibition @ 10 uM” value was -0.85%.

For the compound `CCN1CCN(C(=O)CCCn2nc(C)c3c(C)n(-c4ccc(C)cc4)nc3c2=O)CC1`, the “% Inhibition @ 10 uM” value was -6.53%.

On to `N=C(NOC(=O)C1CCCCC1)c1ccc(Br)cc1`, for which the “% Inhibition @ 10 uM” value is given as 3.66%.

For the compound `COCCCNc1cc(C)nc2ccc(C)cc12`, the “% Inhibition @ 10 uM” value is reported as -1.26%.

As for `CSC1=NSC2=NC(=O)/C(=C\c3cc(Cl)c(O)c(Cl)c3)C(=N)N12`, the “% Inhibition @ 10 uM” value is -1.58%.

With `CCOC(=O)c1c(C)c(C(=O)NCC(C)C)c(C)n1Cc1ccccc1`, the “% Inhibition @ 10 uM” value was found to be 0.0579%.

As for `CCOc1cc2c(cc1OCC)C(c1cc(OC)c(OC)c(OC)c1)NCC2` (stereo not drawn), the “% Inhibition @ 10 uM” value is recorded as -6.43%.

For the compound `Oc1nc(O)c2c(n1)CCN(Cc1ccc(F)cc1)C2`, the “% Inhibition @ 10 uM” value was found to be 3.61%.

As to `Cc1ccccc1COC(=O)c1ccc(-n2cccn2)cc1`, the “% Inhibition @ 10 uM” value was determined as 4.58%.

For `COc1ccc(Cn2ccc3nc(C)c(C(=O)NCC4CCCO4)cc3c2=O)cc1` (stereo not drawn), the “% Inhibition @ 10 uM” value is -4.75%.

Turning to `Cn1c(=O)[nH]c(=O)c2c1nc(N1CCCCCC1)n2CCc1ccccc1`, the “% Inhibition @ 10 uM” value is -13.3%.

Turning to `CC(=O)N1CCN(C2CCCC(C)C2)CC1` (stereo not drawn), the “% Inhibition @ 10 uM” value is listed as -4.01%.

With `O=c1cc2nc(-c3ccco3)nc(SCCOc3ccccc3Cl)n2[nH]1`, the “% Inhibition @ 10 uM” value came out at 4.32%.

`CC(C)c1ccc(-c2c(N(C)Cc3ccco3)c(=O)c2=O)cc1`: the “% Inhibition @ 10 uM” value turned out to be 4.1%.

Turning to `COc1cc(C=O)ccc1OCc1ccncc1`, the “% Inhibition @ 10 uM” value was 1.58%.

As to `O=C(NCc1nc2ccccc2[nH]1)c1nc(-c2ccc3c(c2)OCO3)no1`, the “% Inhibition @ 10 uM” value came to 4.57%.

For `O=C(NCC1CCCO1)c1nc(-c2ccc(C(F)(F)F)cc2)no1` (stereo not drawn), the “% Inhibition @ 10 uM” value is recorded as -2.28%.

Consider `CN1C(=O)N(C)C2(O)c3ccccc3C(=O)C12O` (stereo not drawn), for which the “% Inhibition @ 10 uM” value is -1.42%.

In the case of `COc1cc(OC)nc(NC(=O)CSc2nc3ccccc3o2)n1`, the “% Inhibition @ 10 uM” value was -3.49%.

For `O=c1/c(=C/c2cccs2)sc2nnc(-c3ccccc3Cl)n12`, the “% Inhibition @ 10 uM” value is reported as -5.01%.

Regarding `Cc1ccc(CSc2nc3ccccc3[nH]2)cc1`, the “% Inhibition @ 10 uM” value was found to be 11.4%.

With `COc1cccc(OCC(O)CN(CCO)Cc2ccccc2)c1` (stereo not drawn), the “% Inhibition @ 10 uM” value came to 3.06%.

As to `Cc1[nH]c(-c2ccc(F)cc2)cc1C(=O)N1CC=C(c2ccccc2)CC1`, the “% Inhibition @ 10 uM” value is reported as 6.06%.

Consider `C=CCOc1nc(-c2ccccc2)cc(-c2ccc(OC)cc2)n1`, for which the “% Inhibition @ 10 uM” value is 5.04%.

Regarding `CC(C)Oc1ccc(CNC(=O)CCC(=O)N2Cc3ccccc3Oc3ncccc32)cc1`, the “% Inhibition @ 10 uM” value is 0.627%.

Turning to `C=CCNc1ncnc2c1c(-c1ccccc1)cn2-c1ccc(OC)cc1`, the “% Inhibition @ 10 uM” value is listed as 2.56%.

`O=C(NC1CC1)c1cc(Sc2ccc(F)cc2F)nc2ccccc12`: the “% Inhibition @ 10 uM” value is -6.75%.

Consider `Nc1cc(O)nc2ncnn12`, for which the “% Inhibition @ 10 uM” value stood at 3.38%.

In the case of `Cc1cc(C)n(CCc2nc3c4ccccc4nc(N4CCN(C5CCCCC5)CC4)n3n2)n1`, the “% Inhibition @ 10 uM” value is on record as -4.21%.

In the case of `CCN1CCN(C(c2ccccn2)c2c(NC(=O)c3ccccc3)sc(C)c2C)CC1` (stereo not drawn), the “% Inhibition @ 10 uM” value is -1.61%.

As for `CC(C)(C)c1ccc(CNC(=O)c2ccccc2Br)cc1`, the “% Inhibition @ 10 uM” value is 0.0719%.

As to `CN(C)CCCNc1ncnc2sc3c(c12)CCCC3`, the “% Inhibition @ 10 uM” value came out at 6.54%.

For the compound `N#CCNC(=O)[C@H](Cc1cc(Cl)c(O)c(Cl)c1)NC(=O)c1ccc(F)c(F)c1`, the “% Inhibition @ 10 uM” value was determined as 6.03%.
